# Results published in the supplement of paper PMC3334620.
# In all, about 33,000 sequences were measured (“E-score (-0.5 to 0.5)”: median about -0.032, highest 2% from about 0.36 on). This is one part of the list.
# Biological target: T1, Sko1 (UniProt Q02100)
# T1 sequence: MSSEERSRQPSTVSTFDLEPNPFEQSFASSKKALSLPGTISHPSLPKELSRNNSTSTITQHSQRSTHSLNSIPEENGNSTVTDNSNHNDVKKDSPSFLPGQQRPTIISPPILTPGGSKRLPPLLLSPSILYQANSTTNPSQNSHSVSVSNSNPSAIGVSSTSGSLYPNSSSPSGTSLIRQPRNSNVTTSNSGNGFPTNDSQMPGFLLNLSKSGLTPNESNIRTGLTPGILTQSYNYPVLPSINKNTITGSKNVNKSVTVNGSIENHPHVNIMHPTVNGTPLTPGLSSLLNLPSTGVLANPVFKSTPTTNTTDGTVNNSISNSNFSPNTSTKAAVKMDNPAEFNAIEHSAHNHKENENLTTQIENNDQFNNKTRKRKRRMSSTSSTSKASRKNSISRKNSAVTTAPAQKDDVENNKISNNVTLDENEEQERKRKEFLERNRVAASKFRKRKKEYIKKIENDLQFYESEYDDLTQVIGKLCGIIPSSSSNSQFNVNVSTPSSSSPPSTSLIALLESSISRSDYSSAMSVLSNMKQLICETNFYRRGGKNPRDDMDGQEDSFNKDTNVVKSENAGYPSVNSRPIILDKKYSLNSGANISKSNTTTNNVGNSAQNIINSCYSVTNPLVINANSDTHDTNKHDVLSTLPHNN
# Experiment: PBM E-score (8-mer binding enrichment) (E-score (-0.5 to 0.5)); higher = stronger / more preferred TF binding; most listed sequences are background and not binding sites
# Settings: protein concentration: 200 nM; construct: GST-full length
# Outline: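 E-scores (a modified Wilcoxon-Mann-Whitney statistic) were assigned by the Universal PBM Analysis Suite to every ungapped eight-base word pooled with its reverse complement. The input came from universal all-10-mer Agilent arrays made double-stranded by primer extension and probed with GST-tagged yeast transcription factors at about 100-200 nM. Fluorescent anti-GST detected bound protein, and masliner normalised the scans.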
row,Sequence,PBM E-score
1,GATTTCGC,0.237
2,AGTACGTC,0.435
3,AATACTTG,0.167
4,CACGCAGC,0.0173
5,ATAGATCG,-0.0452
6,CTCTAAAA,0.0563
7,CAAGTTAG,-0.131
8,GCAGCTAC,0.166
9,AGGTCAGC,0.085
10,CGCCTAAA,-0.0757
11,TATATCAA,0.192
12,CCCATGCG,-0.078
13,AAGATTTA,0.173
14,CAATGTAA,0.133
15,AATAGAGT,-0.109
16,CAAGTGAG,-0.121
17,TAAAACGA,0.0152
18,ATGTACCC,-0.134
19,ACAACCAG,-0.0114
20,AGCAGGGA,-0.221
21,AAAACCGA,-0.0633
22,TCATGACA,0.319
23,GAACGACC,-0.306
24,CCTGAAGA,-0.0498
25,ATTAATCA,0.27

row,Sequence,PBM E-score
1,TCCCGTCA,0.218
2,AATGTCTG,-0.0959
3,AATCGAGG,-0.231
4,CGCGATGA,0.303
5,CTCCACAG,-0.31
6,CAGCAGAA,-0.12
7,GCGTCGAA,-0.0521
8,CCTGCGAA,-0.0899
9,CCCATCCC,-0.126
10,CTAACTAG,0.0279
11,ATGGCAAA,-0.0313
12,AACATGAG,0.0764
13,CTACACGA,0.0875
14,AAACATCC,0.0546
15,AGAAGAAC,-0.0233
16,CGCATGAA,0.00284
17,AATGTATC,0.183
18,AGGCACAT,0.0946
19,CACACACA,0.0588
20,ATGTAGCG,-0.145
21,AGGCAGTG,-0.0421
22,ACCTCTCG,-0.196
23,ATAGAGGA,-0.18
24,ACCGGCCA,-0.231
25,GAGATCCC,-0.171

row,Sequence,PBM E-score
1,AGGCCGCC,-0.182
2,GAGATAAA,0.0445
3,ACCTCAGA,-0.211
4,AATGGATC,-0.147
5,TGTGGTAA,0.117
6,AGTCACAT,0.0771
7,CGTTAAGA,0.17
8,CTCACAAC,0.1
9,ATCCTCGA,0.0269
10,TAATCGGA,0.0288
11,AACCGGAC,-0.0878
12,CGCGAGAG,-0.147
13,ACGGAAAA,-0.036
14,ATGGTCAC,-0.0662
15,ATCCCAGA,-0.302
16,CCACAGAG,-0.0505
17,TCTATGAA,0.12
18,CCAAAACA,-0.0759
19,GGCTGCAA,-0.261
20,ACCTGCCA,-0.13
21,TGCTTCAA,-0.137
22,ACATTCCA,0.184
23,CAATTTCG,0.00535
24,ACTAATCA,0.137
25,CTGCCGAA,-0.302

row,Sequence,PBM E-score
1,AATGGAAG,0.122
2,ACTGGCGA,-0.315
3,ACGACATC,0.346
4,CACTACCC,-0.0578
5,ACACCGAG,-0.218
6,CCTGGAAG,-0.241
7,CAGGATCG,-0.151
8,CCCGGAAA,-0.155
9,ACTAGCGC,-0.0522
10,AAAGAGAG,-0.175
11,CATAAGGA,-0.0132
12,AGTCATCC,-0.0488
13,CAGCCCGG,-0.331
14,GCGCGTAC,0.139
15,CTCCGACA,-0.116
16,ACTCTTGG,-0.179
17,CCCATCGG,-0.0979
18,AGGCTCTA,-0.044
19,ATCGCTCC,-0.256
20,TCAAGAGA,-0.0398
21,CCATCCAC,-0.333
22,TCATATCA,0.209
23,ATTATCAA,0.131
24,CCGCAACG,0.0186
25,AACTGATC,-0.013

row,Sequence,PBM E-score
1,ATAGGGTG,-0.229
2,GTTGGATA,0.11
3,ACTATGAC,0.342
4,ATTTGTCG,0.0997
5,ACGAACTG,0.0529
6,AAATTACG,0.439
7,AGGGATGC,-0.283
8,ACGTAAGT,0.465
9,AAGCCTTG,-0.054
10,GCCTGGCC,-0.269
11,ATACGATA,0.269
12,CCGGAGCC,-0.349
13,ACCTTGAA,-0.0691
14,CCTATCCA,-0.145
15,GACTATGC,-0.0722
16,TCACATCA,0.274
17,CCTCATGA,0.154
18,ACCTAGTC,-0.18
19,AGGGCTAT,-0.13
20,TACACGAA,0.251
21,ATCCGTTG,-0.0186
22,GACCACCC,-0.0617
23,ATGGATGA,0.0327
24,CAAGAGGG,-0.219
25,CGGGAGAA,-0.258

row,Sequence,PBM E-score
1,AGGAGTTA,-0.0892
2,TACGGGAA,-0.167
3,AACGTATG,0.431
4,ACCACCCG,-0.148
5,AGTTTAAT,0.168
6,AATCTAAG,0.033
7,TCTTGGCA,0.124
8,AAACCGCT,-0.177
9,CCTGAGCC,-0.285
10,ACATGGTC,0.00655
11,CCAACATC,-0.131
12,ACACGTCT,0.292
13,AAACGAGC,0.133
14,CTACACCA,-0.00119
15,ATTCACCA,0.0304
16,CTTGTACA,0.0263
17,CGTTCTGC,0.179
18,ACGTGTGG,0.395
19,CTCGGCAC,-0.274
20,ACCAAGCC,-0.132
21,AGTTGTGG,0.0954
22,AAGGCTAC,-0.0831
23,CCCAGAAA,-0.0901
24,TAGCCGGA,-0.118
25,GGGCAAAC,-0.0889

row,Sequence,PBM E-score
1,AACGACAG,0.0973
2,GACGCCAA,0.132
3,GAAGAGTA,-0.0306
4,AAATAGAG,0.101
5,CCAAGCTA,-0.144
6,CGGGAACA,0.0556
7,CCGATTTA,-0.0925
8,ACCTAAGA,0.0726
9,AGGAATAA,0.0425
10,ACAAATCT,0.116
11,ATACCATG,0.127
12,ACCCTGCC,-0.235
13,GGCTCGCA,-0.107
14,GCACAATA,-0.0186
15,ATTGGAAG,0.0298
16,GATGCGAA,0.0752
17,ATGTATCC,0.00689
18,TGTCGAAA,0.0525
19,CGACTTAA,0.0456
20,CGAACTGC,-0.0625
21,CTCCTGCC,-0.232
22,GGCAATAA,-0.102
